# Data taken from PubChem BioAssay AID2147 (National Center for Advancing Translational Sciences (NCATS), 2009).
# Out of some 230,000 compounds screened, about 3,600 (1.6%) were called active. This list was built around the results that the source calls inconclusive (neither active nor inactive); the mix of calls is not that of the screen. Calls come from the whole dose curve; as a rule, active = well fitted inhibition curve with a large enough effect (not every such curve was filed as active); inconclusive = small, poorly fitted or top-dose-only effect, or another doubt; inactive = no such curve, though single readings can be large or run the other way. Where the call is inconclusive, the potency comes from a doubtful curve fit.
# Target: Lysine-specific demethylase 4E (Homo sapiens) (UniProt B2RXH2)
# UniProt B2RXH2, sequence (B2RXH2 whole entry, looked up, the tested form may be a part): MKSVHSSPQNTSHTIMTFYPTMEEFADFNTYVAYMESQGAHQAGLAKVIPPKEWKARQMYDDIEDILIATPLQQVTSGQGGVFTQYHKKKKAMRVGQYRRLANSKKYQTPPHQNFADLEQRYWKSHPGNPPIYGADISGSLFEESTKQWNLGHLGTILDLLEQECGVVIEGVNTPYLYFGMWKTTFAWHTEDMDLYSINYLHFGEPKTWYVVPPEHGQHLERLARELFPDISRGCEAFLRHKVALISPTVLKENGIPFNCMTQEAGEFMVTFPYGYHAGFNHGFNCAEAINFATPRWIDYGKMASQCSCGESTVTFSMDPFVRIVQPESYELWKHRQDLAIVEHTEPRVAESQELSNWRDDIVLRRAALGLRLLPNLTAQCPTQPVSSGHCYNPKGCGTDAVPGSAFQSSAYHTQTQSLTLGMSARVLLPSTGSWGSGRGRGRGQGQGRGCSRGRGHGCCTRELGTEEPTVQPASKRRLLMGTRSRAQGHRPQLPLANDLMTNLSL
# Assay: qHTS Assay for Inhibitors of Human Jumonji Domain Containing 2E (JMJD2E)
# Settings: JMJD2E catalytic domain, FDH-coupled NADH fluorescence (FDH is formaldehyde dehydrogenase); series mostly up to 57.1 µM
# Note: nearly all actives have a fitted effect of over 50% in size.
# Potency is the fitted concentration of half-maximal effect; tags give direction and shape of the fitted curve.
row,SMILES,Potency
1,S=C1Nc2ccccc2Sc2ccccc21,inactive
2,O=C(Cn1nc(-c2ccccc2)ccc1=O)N1CCC2(CC1)OCCO2,"inconclusive: 31.6 µM [inhibitor, single point]"
3,CC12CN3CC(C)(CN(C1)C31CCOCC1)C2=O,"inconclusive: 39.8 µM [inhibitor, single point]"
4,O=C1CC(N2CC=C(c3ccccc3)CC2)C(=O)N1c1ccc(F)cc1 (stereo not given),"inconclusive: 25.1 µM [inhibitor, single point]"
5,COc1cc2c(cc1OC)-c1c(O)c(OC)cc3c1[C@H](C2)N(C)CC3,"inconclusive: 34.4 µM [inhibitor, partial curve, poor fit]"
6,CN1C(=O)C(=Cc2ccc(N3CCCCCC3)o2)C(=O)N(C)C1=S,inactive
7,CCOC(=O)CSCCOc1ccc(C=C2C(=O)NC(=O)NC2=O)cc1OC,"inconclusive: 25.1 µM [inhibitor, single point]"
8,CCOC(=O)c1ccc(N2C(=O)CC(N3CC=C(c4ccc(F)cc4)CC3)C2=O)cc1 (stereo not given),active: 14.1 µM
9,Cc1cc(C(=O)O)sc1C(N)C(=O)O (stereo not given),"inconclusive: 28.2 µM [inhibitor, single point]"
10,Cc1c2cnn(CC(=O)N3CCC4(CC3)OCCO4)c(=O)c2c(C)n1Cc1ccccc1,"inconclusive: 39.8 µM [inhibitor, single point]"
11,CCCCCC1C(=O)O[C@H](C)[C@@H](NC(=O)c2cccc(NC=O)c2O)C(=O)OC(C)C1OC(=O)CC(C)C (stereo not given in full),"inconclusive: 28.2 µM [inhibitor, partial curve]"
12,Cn1cccc1/C=C1/C(=O)NC(=O)N(Cc2ccccc2)C1=O,inactive
13,CCN(CC)CCN=Cc1c(O)n(CCC2=CCCCC2)c(=O)[nH]c1=O,inactive
14,CCCn1cc2c3c(cccc31)C1CC(C)CN(C)C1C2 (stereo not given),"inconclusive: 39.8 µM [inhibitor, single point]"
15,Cn1cnc(CCN)c1,inactive
16,CCOc1ccc(-c2cc(C)[n+](CCN3CCOCC3)c(-c3ccc(OCC)cc3)c2)cc1,"inconclusive: 35.5 µM [inhibitor, single point]"
17,COc1cc2c(cc1OC)-c1c(OC)c(OC)c(C=O)c3c1[C@H](C2)N(C)CC3,"inconclusive: 20 µM [inhibitor, partial curve, poor fit]"
18,CCNC(=O)NNC(=O)C1CC(c2cccnc2)=NO1 (stereo not given),"inconclusive: 39.8 µM [inhibitor, single point]"
19,c1cncc(CNc2cc(-c3ccc4c(c3)OCO4)ncn2)c1,"inconclusive: 35.5 µM [inhibitor, single point]"
20,Cc1onc(-c2ccccc2Cl)c1C(=O)OCC(=O)c1ccc2c(c1)OCCO2,"inconclusive: 35.5 µM [inhibitor, single point]"
21,CN(C)C(=O)Oc1cc(=O)n2c3c(cccc13)CCC2,"inconclusive: 39.8 µM [inhibitor, single point]"
22,N#CC(=Cc1ccc(O)c(O)c1)C(N)=S,active: 8.91 µM
23,O=C1C=CC(=O)c2c(O)cccc21,active: 7.08 µM

row,SMILES,Potency
1,CCN(CC)C(=O)[C@]1(c2ccccc2)C[C@@H]1CN,"inconclusive: 39.8 µM [inhibitor, single point]"
2,COc1cc(/C=C(/C)[N+](=O)[O-])ccc1OCc1ccccc1Cl,inactive
3,CC(C)CCn1c(=O)c(C(=O)Nc2ccccc2S(N)(=O)=O)c(O)c2ccccc21,"inconclusive: 28.2 µM [inhibitor, partial curve]"
4,CNNC,"inconclusive: 28.2 µM [inhibitor, single point]"
5,CCOC(=O)c1c(/N=C/c2c(O)n(-c3ccccc3F)c(=S)[nH]c2=O)sc2c1CCCC2,"inconclusive: 25.1 µM [inhibitor, single point]"
6,COc1c2c(c(CC=C(C)C)c3oc(=O)c(-c4ccc(O)cc4)c(O)c13)OC(C)(C)C=C2,"inconclusive: 12.6 µM [inhibitor, partial curve]"
7,C/C=C/c1ccc(OC)cc1,"inconclusive: 35.5 µM [inhibitor, single point]"
8,C=CCn1c(O)c(C(CC)=NC(C)c2ccccc2)c(=O)[nH]c1=O (stereo not given),inactive
9,COc1ccc(-c2nc(CS(=O)CC(=O)N3CCC4(CC3)OCCO4)c(C)o2)cc1 (stereo not given),"inconclusive: 28.2 µM [inhibitor, single point]"
10,CCCCn1c(O)c(C(CC)=NCc2ccc3c(c2)OCO3)c(=O)[nH]c1=O,inactive
11,CNCCc1ccc(O)c(O)c1,active: 14.1 µM
12,CCOC(=O)C(=CNc1ccc(C(O)(C(=O)OCC)C(F)(F)F)cc1C)C(=O)OCC (stereo not given),"inconclusive: 39.8 µM [inhibitor, single point]"
13,O=C(Cn1ncc2c3ccccc3n(Cc3cccc(Cl)c3)c2c1=O)N1CCC2(CC1)OCCO2,"inconclusive: 25.1 µM [inhibitor, single point]"
14,CC12CCC3C(CC=C4CC(O)CCC43C)C1C/C(=C\c1cccc(F)c1)C2=O (stereo not given),"inconclusive: 39.8 µM [inhibitor, single point]"
15,O=c1[nH]c(CN2CC=C(c3ccccc3)CC2)nc2scc(-c3ccccc3)c12,"inconclusive: 2.51 µM [inhibitor, full curve]"
16,Fc1ccc(NC2=NCCS2)cc1Cl,inactive
17,O=C(c1ccc2c3c(cccc13)CC2)C1CCCN(Cc2ncc[nH]2)C1 (stereo not given),"inconclusive: 31.6 µM [inhibitor, partial curve]"
18,CN(N)N=Nc1nc2c([nH]1)c(=O)n(C)c(=O)n2C,"inconclusive: 35.5 µM [inhibitor, single point]"
19,CN1c2ccc([N+](=O)[O-])cc2CC2(C(=O)NC(=O)N(c3ccc(Br)cc3)C2=O)C1c1ccccc1 (stereo not given),inactive
20,Cc1cc(C(=O)CS(=O)(=O)c2ccc(F)cc2)cc(C)c1OC(=O)N(C)C,"inconclusive: 28.2 µM [inhibitor, single point]"
21,CN1C[C@H](C(=O)N[C@]2(C)O[C@@]3(O)C4CCCN4C(=O)[C@H](Cc4ccccc4)N3C2=O)C[C@@H]2c3cccc4[nH]cc(c34)C[C@H]21 (stereo not given in full),inactive
22,FC(F)=C(F)CCSc1ncn[nH]1,active: 4.47 µM
